# Results taken from a collection of fitness landscapes (doi:10.1016/j.celrep.2020.107928).
# Whole data set: some 81,000 sequences, median “one-hybrid fitness for binding parS DNA” near -0.17, cut for the highest 2% near 0.51. Some of the results follow.
# B1: Caulobacter ParB omega fusion; a variant is named by its letters at X, in order, B8GW30 (parent)
# chain: MESVVVGEPGMSEGRRGLGRGLSALLGEVDAAPAQAPGEQLGGSREAPIEILQRNPDQPRRTFREEDLEDLSNSIREKGVLQPILVRPSPDTAGEYQIVAGERAWRAAQRAGLKTVPIMVRELDDLAVLEIGIIENVQRADLNVLEEALSYKVLMEKFERTQENIAQTIGKSXSHVANXMRLLXLPDEVQSYLVSGELTAXHARAIAAAADPVALAKQIIEGGLSVRETEALARKAPNLSAGKSKGGRPPRVKDTDTQALESDLSSVLGLDVSIDHRGSTGTLTITYATLEQLDDLCNRLTRGI
# Variants of: B1
# Experiment: one-hybrid fitness for binding parS DNA (scaled: cognate 1, non-cognate 0); higher = stronger binding
# Settings: with parS DNA site
# Summary of the method: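 Selection: bacterial one-hybrid in E. coli USO, HIS3 reporter with the site 19 bp from the promoter, 48 hours at 37°C on M9-minus-histidine plus 0.1 mM IPTG and 5 mM 3-AT. Libraries were Caulobacter ParB with four randomised specificity codons, sequenced on Illumina before and after selection. Fitness is the rescaled log change in variant-to-wild-type read ratio, anchored to the cognate and non-cognate sites.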
row,Variant,one-hybrid fitness for binding parS DNA
1,CQTA,≤ 0.2
2,FAPR,≤ 0.2
3,PPGD,≤ 0.2
4,LKCD,≤ 0.2
5,RAFR,≤ 0.2
6,LQMR,≤ 0.2
7,GFSL,≤ 0.2
8,SCKR,≤ 0.2
9,RRPM,0.215
10,PDYV,≤ 0.2
11,SQLK,≤ 0.2
12,PFPA,≤ 0.2
13,NYPT,≤ 0.2
14,TELW,≤ 0.2
15,YRTR,≤ 0.2
16,AWDT,≤ 0.2
17,EHEN,≤ 0.2
18,VVNI,≤ 0.2
19,FLEM,≤ 0.2
20,PTQE,≤ 0.2
21,NQMN,≤ 0.2
22,VHHW,≤ 0.2
23,ANAD,≤ 0.2
24,YENS,≤ 0.2
25,LANS,≤ 0.2

row,Variant,one-hybrid fitness for binding parS DNA
1,DDQL,≤ 0.2
2,TARG,≤ 0.2
3,TVYR,≤ 0.2
4,FRVA,≤ 0.2
5,VTQR,≤ 0.2
6,SDYQ,≤ 0.2
7,SQDL,≤ 0.2
8,YTGG,≤ 0.2
9,SIHC,≤ 0.2
10,RKYK,≤ 0.2
11,QQKT,≤ 0.2
12,SPPS,≤ 0.2
13,SAWV,≤ 0.2
14,QSVD,≤ 0.2
15,KDRW,≤ 0.2
16,ITVR,≤ 0.2
17,SRLI,≤ 0.2
18,TYPW,≤ 0.2
19,EAVQ,≤ 0.2
20,QMPF,≤ 0.2
21,GNPI,≤ 0.2
22,TQRK,≤ 0.2
23,RNMW,≤ 0.2
24,WQNG,≤ 0.2
25,PVHA,≤ 0.2

row,Variant,one-hybrid fitness for binding parS DNA
1,HTMV,≤ 0.2
2,CVCT,≤ 0.2
3,CTFR,≤ 0.2
4,ELEP,≤ 0.2
5,RMPW,≤ 0.2
6,VTSA,≤ 0.2
7,GAVN,≤ 0.2
8,RKFW,≤ 0.2
9,WGPR,≤ 0.2
10,GTWR,≤ 0.2
11,QKQK,≤ 0.2
12,LYWA,≤ 0.2
13,QIHS,≤ 0.2
14,YHSW,≤ 0.2
15,SPYL,≤ 0.2
16,KKDG,≤ 0.2
17,IMFG,≤ 0.2
18,QRPF,≤ 0.2
19,SKCM,≤ 0.2
20,LQKL,≤ 0.2
21,RKNR,≤ 0.2
22,ISNF,≤ 0.2
23,LWKR,≤ 0.2
24,HTSA,≤ 0.2
25,QTMI,≤ 0.2

row,Variant,one-hybrid fitness for binding parS DNA
1,VPST,≤ 0.2
2,PTVC,≤ 0.2
3,YTGC,≤ 0.2
4,AKQG,≤ 0.2
5,SSKV,≤ 0.2
6,ELLS,≤ 0.2
7,QCLS,≤ 0.2
8,INVY,≤ 0.2
9,HPMI,≤ 0.2
10,HNNK,≤ 0.2
11,DYNS,≤ 0.2
12,TAMC,≤ 0.2
13,SWDT,≤ 0.2
14,LDWE,≤ 0.2
15,ATNN,≤ 0.2
16,GNTY,≤ 0.2
17,FREY,≤ 0.2
18,SVGR,≤ 0.2
19,DLDL,≤ 0.2
20,SQQK,≤ 0.2
21,LQVR,≤ 0.2
22,AETV,≤ 0.2
23,SRIC,≤ 0.2
